Laboratory results published in the supplement of paper PMC12217912.
Some of the results follow. Sequences were assembled here from the parent chain. Values near 0.05 are background.

B1: TEV protease; numbered along this chain (parent)
chain: MGESLFKGPRDYNPISSSICHLTNESDGHTTSLYGIGFGPFIITNKHLFRRNNGTLVVQSLHGVFKVKDTTTLQQHLVDGRDMIIIRMPKDFPPFPQKLKFREPQREERICLVTTNFQTKSMSSMVSDTSCTFPSGDGIFWKHWIQTKDGQCGSPLVSTRDGFIVGIHSASNFTNTNNYFTSVPKNFMELLTNQEAQQWVSGWRLNADSVLWGGHKVFMVKPEEPFQPVKEATQL

Variants of: B1
Assay: raw area under fraction-flipped curve 0-4 h after induction (AUC4h, not background-subtracted), DNA-recorder readout of cleavage of the substrate (dimensionless); higher = more cleavage of the substrate by the protease variant
Settings: temperature: 34 °C; time window: 0-4 h after rhamnose induction
Method: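 In vivo DNA recorder in E. coli TOP10(DE3) ΔrhaA at 34 °C. Each TEVp single-site mutant (parent TEVp 0) is paired with a single-site variant of the 7-mer TEVs (canonical ENLYFQ|S). The substrate sits between flexible linkers in a Bxb1-sfGFP-TEVs-SsrA fusion, so cleavage stabilises Bxb1 and speeds flipping of a recombination array, read by NGS. The value is the raw area under the fraction-flipped curve over 0-4 h after rhamnose induction (AUC4h), with ≥20 reads per time point. It is not background-subtracted; inactive controls average about 0.047.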
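Further: Bxb1 expression induced with 0.2% (w/v) L-rhamnose at OD600 near 0.5, cultures sampled hourly, flipped fraction per protease–substrate barcode pair counted by paired-end Illumina sequencing.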

| Variant | area with substrate ENAYFQS | area with substrate ENCYFQS | area with substrate ENDYFQS | area with substrate ENEYFQS | area with substrate ENFYFQS | area with substrate ENGYFQS | area with substrate ENIYFQS | area with substrate ENKYFQS | area with substrate ENNYFQS | area with substrate ENPYFQS | area with substrate ENQYFQS | area with substrate ENRYFQS | area with substrate ENSYFQS | area with substrate ENTYFQS | area with substrate ENYYFQS | area with substrate ENVYFQS | area with substrate ENHYFQS | area with substrate ENMYFQS | area with substrate ENWYFQS |
| --- | --- | --- | --- | --- | --- | --- | --- | --- | --- | --- | --- | --- | --- | --- | --- | --- | --- | --- | --- |
| H215K | 0.0465 | 0.065 | 0.0616 | 0.0589 | 0.0797 | 0.0572 | 0.0583 | 0.0652 | 0.0558 | 0.0681 | 0.0617 | 0.0625 | 0.06 | 0.0506 | 0.0577 | – | – | – | – |
| G35S | 0.0537 | – | 0.0585 | – | – | – | 0.0631 | – | – | – | – | – | – | – | – | 0.0473 | – | – | – |
| T174C | 0.0567 | – | 0.0561 | 0.0538 | 0.0595 | – | 0.0997 | 0.0615 | – | 0.0671 | 0.0635 | 0.0343 | 0.0477 | 0.0599 | – | 0.0707 | 0.0607 | 0.0663 | – |
| F101E | 0.049 | – | – | 0.056 | 0.0472 | – | – | – | – | – | 0.0569 | – | 0.0461 | – | 0.0408 | 0.0412 | 0.0445 | 0.0532 | – |
| G153C | 0.0449 | – | 0.0281 | – | – | 0.0575 | 0.0354 | – | 0.0558 | 0.061 | 0.056 | – | 0.0409 | 0.0556 | – | 0.0513 | – | 0.0326 | – |
| A196V | 0.0512 | – | – | 0.0482 | – | 0.0523 | – | – | 0.066 | – | 0.082 | – | – | – | 0.0572 | – | – | – | – |
| T119A | 0.0872 | 0.068 | 0.0647 | – | – | 0.0551 | – | 0.0586 | – | 0.057 | 0.0621 | 0.0629 | 0.0572 | 0.0478 | 0.0503 | 0.101 | 0.0474 | 0.0804 | 0.04 |
| L22M | 0.0447 | 0.0597 | 0.0642 | 0.0559 | 0.0609 | 0.06 | 0.0832 | – | – | 0.0391 | 0.0611 | – | 0.0557 | 0.0647 | – | 0.0817 | 0.0598 | 0.0553 | – |
| Q198G | 0.0602 | – | 0.0696 | – | – | 0.0444 | – | – | – | 0.0545 | 0.0557 | – | 0.0619 | 0.0647 | – | 0.0842 | 0.0488 | – | – |
| V113W | 0.067 | 0.0662 | – | 0.0502 | – | – | – | 0.0734 | – | 0.0494 | – | 0.0344 | 0.0637 | – | 0.045 | – | 0.0759 | 0.0885 | – |
| N186F | 0.0835 | 0.0834 | – | – | 0.053 | – | – | 0.0581 | – | 0.0753 | – | – | – | – | – | 0.0527 | 0.0513 | – | – |
| S60W | 0.0653 | 0.0464 | 0.0384 | 0.057 | 0.0569 | – | – | – | 0.0375 | 0.0709 | 0.0538 | 0.0462 | 0.0651 | 0.0524 | 0.0544 | 0.0589 | 0.0549 | – | – |
| S18G | 0.0723 | – | 0.0569 | 0.0522 | – | 0.07 | – | – | 0.0626 | 0.08 | 0.129 | 0.0587 | 0.0442 | 0.0754 | 0.082 | 0.0763 | 0.0654 | 0.0794 | – |
| G202I | 0.0583 | – | 0.056 | – | 0.056 | – | 0.0668 | 0.0802 | – | – | 0.028 | 0.0507 | 0.069 | 0.0618 | – | – | – | – | – |
| A170K | 0.0533 | – | 0.0778 | 0.0523 | – | – | – | 0.0558 | – | – | – | – | 0.0489 | – | – | – | – | – | – |
| A170W | 0.0621 | 0.0595 | 0.057 | – | 0.0559 | – | 0.0397 | – | – | – | 0.0651 | 0.0646 | 0.0535 | 0.0589 | – | 0.0601 | – | – | – |

| Variant | area with substrate ENAYFQS | area with substrate ENCYFQS | area with substrate ENDYFQS | area with substrate ENEYFQS | area with substrate ENFYFQS | area with substrate ENGYFQS | area with substrate ENIYFQS | area with substrate ENKYFQS | area with substrate ENNYFQS | area with substrate ENPYFQS | area with substrate ENQYFQS | area with substrate ENRYFQS | area with substrate ENSYFQS | area with substrate ENTYFQS | area with substrate ENYYFQS | area with substrate ENVYFQS | area with substrate ENHYFQS | area with substrate ENMYFQS | area with substrate ENWYFQS |
| --- | --- | --- | --- | --- | --- | --- | --- | --- | --- | --- | --- | --- | --- | --- | --- | --- | --- | --- | --- |
| L5H | 0.0658 | 0.0517 | 0.0556 | 0.0606 | – | – | – | – | – | – | 0.0597 | – | – | 0.0562 | 0.0542 | – | – | – | – |
| K185A | 0.074 | – | 0.0587 | – | 0.0474 | – | – | – | – | – | 0.0708 | 0.0316 | 0.0551 | 0.0633 | – | 0.0621 | – | – | – |
| L33D | 0.0659 | 0.0541 | 0.0655 | 0.0824 | 0.0548 | 0.0613 | – | – | 0.0561 | – | 0.0635 | 0.0619 | 0.057 | 0.0597 | – | 0.0522 | – | 0.0648 | – |
| K98V | 0.0509 | 0.055 | 0.0708 | 0.0506 | 0.0601 | 0.0503 | – | 0.0481 | – | 0.0508 | 0.0801 | 0.0684 | 0.0509 | 0.0582 | – | 0.083 | 0.0539 | – | 0.0788 |
| S209K | 0.0456 | – | 0.0808 | 0.06 | – | 0.0731 | – | 0.0557 | – | – | 0.0783 | – | 0.0692 | – | 0.0601 | – | – | 0.0695 | – |
| S158V | 0.0525 | – | 0.0535 | – | 0.05 | – | – | 0.0552 | 0.0506 | – | 0.0642 | 0.0499 | 0.0518 | – | 0.0574 | 0.0453 | – | – | 0.0441 |
| P228S | 0.0704 | – | 0.0584 | 0.0529 | 0.0629 | – | – | 0.0556 | 0.0564 | 0.0577 | 0.0137 | – | 0.0514 | 0.0577 | 0.0691 | 0.0893 | – | 0.0876 | – |
| N45G | 0.058 | 0.0556 | 0.0614 | – | 0.0653 | 0.0498 | 0.0936 | 0.0529 | – | – | 0.0445 | – | – | 0.0497 | 0.0433 | 0.0711 | 0.0576 | 0.0632 | 0.0382 |
| F92V | 0.0517 | – | – | 0.0562 | – | – | 0.124 | – | – | 0.0617 | 0.0589 | – | – | – | – | – | 0.0678 | – | – |
| Q59H | 0.0626 | 0.0681 | 0.0642 | 0.0632 | 0.0635 | 0.0673 | – | – | 0.078 | – | 0.0631 | – | 0.0663 | 0.0646 | – | – | 0.0538 | – | – |
| E231I | 0.0495 | 0.0725 | – | 0.0577 | 0.0419 | – | 0.098 | 0.0439 | – | 0.0576 | 0.0626 | 0.0666 | 0.0589 | – | – | – | 0.0628 | 0.0763 | 0.0066 |
| G138L | 0.0382 | – | 0.076 | – | – | – | 0.0857 | – | – | – | – | – | – | 0.0516 | 0.0522 | 0.0651 | – | – | – |
| P155G | 0.0521 | 0.0625 | 0.0447 | 0.0565 | 0.0462 | 0.0526 | 0.064 | – | 0.0569 | 0.0746 | 0.0466 | 0.0464 | – | 0.0564 | – | 0.0484 | – | – | – |
| W203P | 0.0599 | 0.0378 | 0.0621 | 0.0483 | – | – | 0.0753 | 0.0605 | – | – | 0.0617 | 0.0553 | 0.0566 | – | 0.048 | – | – | – | – |
| Q194A | 0.067 | – | 0.0399 | – | 0.0516 | 0.0695 | – | – | 0.0479 | – | 0.0642 | – | – | 0.0551 | – | 0.0724 | – | – | – |
| E103D | 0.0626 | 0.0718 | – | – | – | 0.0406 | – | – | – | – | 0.0554 | – | 0.0531 | 0.0714 | – | – | 0.0537 | – | – |
